Experimental data as given in PubChem BioAssay AID1460 (National Center for Advancing Translational Sciences (NCATS), 2008).
In all, about 270,000 compounds went through this assay and about 5,800 (2.1%) were called active. The inconclusive results got no clear call from the source; some entries with a clear call stand among them for comparison. The call rests on the fitted dose curve; in most records, active means well fitted inhibition curve with a large enough effect; inconclusive means small, poorly fitted or top-dose-only effect; inactive means flat fitted curve, though single readings scatter. Where the call is inconclusive, the potency comes from a doubtful curve fit.

These molecules were tested against Microtubule-associated protein tau (Homo sapiens) (UniProt P10636) (assay: qHTS for Inhibitors of Tau Fibril Formation, Thioflavin T Binding). Conditions: recombinant tau K18 P301L (four-repeat tau fragment), heparin-induced fibrillization, ThT fluorescence; series mostly up to 57.4 µM; activity, negative = inhibition: at the top concentration.
Summary of the method: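 Recombinant human tau K18 fragment […] carrying P301L, 15 uM unlabeled plus 0.24 uM Alexa 594-labeled, was fibrillized with 20 uM heparin in 100 mM sodium acetate pH 7 for 6 hr at 37 C; 30 uM ThT fluorescence read after 1 hr.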
Further: nearly all actives have a fitted effect of over 55% in size.
On the % scale 0 is the no-effect control and ±100 the full control effect; potency means the concentration at half of the fitted maximal effect; tags describe the fitted curve by direction and shape.

Sequence of UniProt P10636 (P10636 whole entry, looked up, the tested form may be a part): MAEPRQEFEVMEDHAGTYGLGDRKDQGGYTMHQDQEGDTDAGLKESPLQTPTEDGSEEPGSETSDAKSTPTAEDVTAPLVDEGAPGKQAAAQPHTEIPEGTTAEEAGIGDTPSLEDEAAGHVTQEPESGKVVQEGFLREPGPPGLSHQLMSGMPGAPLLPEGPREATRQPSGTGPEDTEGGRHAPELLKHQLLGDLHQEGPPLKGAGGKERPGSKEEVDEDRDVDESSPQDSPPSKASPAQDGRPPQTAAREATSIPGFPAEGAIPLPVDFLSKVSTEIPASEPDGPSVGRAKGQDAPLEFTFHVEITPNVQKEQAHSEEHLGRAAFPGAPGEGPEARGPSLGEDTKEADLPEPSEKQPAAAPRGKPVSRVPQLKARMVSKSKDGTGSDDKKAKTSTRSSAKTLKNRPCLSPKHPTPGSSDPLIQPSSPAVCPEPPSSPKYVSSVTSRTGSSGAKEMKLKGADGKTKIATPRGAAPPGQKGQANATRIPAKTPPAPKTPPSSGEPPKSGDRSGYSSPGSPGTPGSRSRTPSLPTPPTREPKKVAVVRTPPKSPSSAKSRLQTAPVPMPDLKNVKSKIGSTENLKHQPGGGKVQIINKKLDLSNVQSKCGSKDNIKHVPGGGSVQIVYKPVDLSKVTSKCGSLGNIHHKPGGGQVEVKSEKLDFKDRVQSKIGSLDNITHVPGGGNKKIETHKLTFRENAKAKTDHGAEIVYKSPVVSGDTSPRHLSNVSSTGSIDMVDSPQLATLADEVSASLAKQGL

Compound	Potency	activity, negative = inhibition
CC(C)OCCCNC1=C(Cl)C(=O)c2ccccc2C1=O	active: 12.6 µM	
CCCSc1nc2ccsc2c(=O)n1CC		inactive: -0.345%
CCN(CC)C(=O)c1sc(NC(=O)c2c(OC)cccc2OC)c(C#N)c1C	inconclusive: 28.2 µM [inhibitor, single point]	
CCOC(=O)C1CCN(C(=O)c2ccc(-n3ccc4ccccc43)s2)CC1	inconclusive: 12.6 µM [inhibitor, partial curve]	
CC(C)c1ccc(NC(=O)COc2nnc(-c3cccs3)c(-c3cccs3)n2)cc1	inconclusive: 8.91 µM [inhibitor, partial curve, poor fit]	
CCOc1cc([N+](=O)[O-])cc2c1C(=O)Nc1ccccc1O2	inconclusive: 12.6 µM [inhibitor, partial curve]	
CCOC(=O)c1c(N)sc(C(O)(C(F)(F)F)C(F)(F)F)c1-c1ccc(Cl)cc1	inconclusive: 39.8 µM [inhibitor, single point]	
O=C(CN1C(=O)/C(=C\c2ccccc2F)SC1=S)Nc1nc2ccccc2s1	inconclusive: 1.78 µM [inhibitor, full curve]	
CC(=O)N(c1ccccc1)C1CCCC1		inactive: 7.34%
CCCc1ccc(-c2cc(C(=O)N/N=C/c3ccc([N+](=O)[O-])o3)c3ccccc3n2)cc1	inconclusive: 20 µM [inhibitor, partial curve]	
CCNC(=S)NNC(=O)CCn1c2ccccc2c2ccccc21		inactive: 1.52%
CC(=O)N1N=C(c2ccc(C)cc2)OC1c1ccc(C(C)C)cc1 (centres undefined)	inconclusive: 35.5 µM [inhibitor, partial curve]	
COc1ccc(-c2c3c(=O)n(C)c(=O)n(C)c3c3n2-c2ccccc2NC3c2ccco2)cc1 (centres undefined)		inactive: -17.3%
COc1cccc(Nc2nc(-c3sc(N)nc3C)cs2)c1	active: 11.2 µM	
CC1CC(C)CN(C(=O)CNC(=O)Cn2ccc3ccccc3c2=O)C1 (centres undefined)		inactive: 5.28%
Cc1cc(Br)ccc1OCC(=O)N1CCCCCC1		inactive: -1.6%
OCc1nn2c(c1Br)NC(c1ccccc1)CC2C(F)(F)F (centres undefined)		inactive: -5.75%
Cc1cc(C)c2oc(-c3cccc(NC(=O)COc4ccc([N+](=O)[O-])cc4)c3)nc2c1	inconclusive: 0.141 µM [inhibitor, full curve, poor fit]	
COc1cc(/C=C(\C#N)c2nc3ccccc3[nH]2)cc(OC)c1O	active: 7.08 µM	
O=C(COC(=O)c1ccc(Br)o1)Nc1nc2c(F)c(F)c(F)cc2s1		inactive: -14.6%
Nc1ccc(-c2nc3ccc(-c4nc5ccccc5o4)cc3[nH]2)cc1	active: 8.91 µM	
CCOC(=O)c1c(C)[nH]c(C)c1S(=O)(=O)N(C)CC(=O)Nc1ccc(C)cc1C		inactive: -7.19%
O=C(COc1ccccc1)Nc1ccc2nc(SCCOc3ccccc3)sc2c1	inconclusive: 0.708 µM [inhibitor, full curve, poor fit]	
O=C(COC(=O)c1cccc(Br)c1)NCCC1=CCCCC1		inactive: -10.2%
c1ccc(-c2noc(-c3cccc4ccccc34)n2)cc1	inconclusive: 39.8 µM [inhibitor, single point]	

Compound	Potency	activity, negative = inhibition
C/C(=N\NC(=O)COc1ccc(C#N)cc1)c1ccc(N2CCOCC2)cc1	inconclusive: 0.891 µM [inhibitor, full curve]	
COc1ccc(/C(C)=N/Nc2ccc(F)cc2F)c(O)c1	inconclusive: 3.16 µM [inhibitor, full curve]	
O=[N+]([O-])c1ccc(Nc2nc(N/N=C\c3ccc4c(c3)OCO4)nc(N3CCCCC3)n2)cc1	active: 31.6 µM	
COc1ccc(-c2csc(N)n2)cc1	inconclusive: 10 µM [inhibitor, partial curve]	
COc1ccc(-c2cc(C(C)=O)c(C)n2CCC(=O)Nc2cc(Cl)ccc2C)cc1		inactive: -6.66%
Oc1c(C=NCc2ccccc2)sc2ccccc12	inconclusive: 31.6 µM [inhibitor, single point]	
CN1CCN(C(=S)c2ccc(-c3cccc(Cl)c3Cl)o2)CC1	active: 14.1 µM	
Cc1ccc(N2C(=O)/C(=C/c3ccco3)SC2=S)cc1	inconclusive: 15.8 µM [inhibitor, partial curve]	
Cc1ncoc1C(=O)N1CCCC(C(=O)c2cccc(C(F)(F)F)c2)C1 (centres undefined)		inactive: -1.41%
COc1cc(C2CC(=O)Oc3c2c(=O)n(C)c2ccccc32)ccc1O (centres undefined)	inconclusive: 35.5 µM [inhibitor, single point]	
COc1ccc(S(=O)(=O)N2CCCN(CC(=O)Nc3ccc(OC)c(Cl)c3)CC2)cc1	inconclusive: 25.1 µM [inhibitor, partial curve, poor fit]	
CC(/C=N/n1c(-c2ccco2)n[nH]c1=S)=C\c1ccccc1	inconclusive: 10 µM [inhibitor, partial curve]	
COc1ccc(Br)cc1CN1C(=O)c2ccccc2C1C(=O)NC1CCCCCC1 (centres undefined)	inconclusive: 39.8 µM [inhibitor, single point]	
CCCc1cc(-c2n[nH]c(=S)n2C(C)c2ccccc2)cs1 (centres undefined)	inconclusive: 14.1 µM [inhibitor, partial curve]	
CC(=O)CSc1nnc2[nH]c(=O)cc(N)n12		inactive: 1.35%
COc1cc(C2NC(=O)c3c(sc4c3CCN(C)C4)N2)cc(OC)c1OC (centres undefined)	inconclusive: 17.8 µM [inhibitor, single point]	
Cn1nc(C(=O)Nc2ccc(F)c(Cl)c2)c2c1-c1ccccc1S(=O)(=O)C2		inactive: -19.7%
Cc1ccc2c(c1)C1CCCC3C1N2CC(=O)N3Cc1ccccc1 (centres undefined)	inconclusive: 17.8 µM [inhibitor, partial curve]	
Cc1cccc(-c2nnc(C3CCN(S(=O)(=O)c4cccc(Cl)c4)CC3)o2)c1	inconclusive: 25.1 µM [inhibitor, single point]	
O=C(Nc1ccc2oc(-c3ccncc3)nc2c1)c1cccs1	inconclusive: 1.58 µM [inhibitor, full curve, poor fit]	
Cc1ccc(-c2[nH]c(-c3ccc(C(=O)O)cc3)nc2-c2ccccc2)cc1		inactive: -17.8%
Cc1ccc(NC(=S)N2CCCCC2CO)cc1C (centres undefined)		inactive: -2.43%
Cc1cccc(OCc2nnc(SCn3nnc4ccccc4c3=O)o2)c1	inconclusive: 0.251 µM [inhibitor, partial curve]	
Nc1c(C(=O)N/N=C/c2ccccc2Cl)oc2nc(-c3ccccc3)cc(-c3ccco3)c12	inconclusive: 10 µM [inhibitor, partial curve, poor fit]	
N#Cc1ccccc1CSc1nc2ccc(NC(=O)c3ccccc3C(=O)O)cc2s1	inconclusive: 7.94 µM [inhibitor, partial curve]	

Compound	Potency	activity, negative = inhibition
O=C(/C=C/c1ccccc1)NC(=S)Nc1ccc(N2CCOCC2)cc1	inconclusive: 1.58 µM [inhibitor, full curve]	
CCc1ccc(NC(=O)C2CCN(c3nn4c(=O)cc(C)nc4s3)CC2)cc1	inconclusive: 0.891 µM [inhibitor, full curve, poor fit]	
Clc1ccc(-c2noc3ncnc(NCCc4ccccc4)c23)cc1		inactive: -10.5%
Cc1cccc(Cn2c(N3CCN(c4ccccc4)CC3)nc3c2c(=O)n(C)c(=O)n3C)c1	inconclusive: 8.91 µM [inhibitor, partial curve]	
Cc1ccc(-c2nnc(SCC(=O)Nc3nc4c(s3)CCCC4)n2C)cc1	inconclusive: 2 µM [inhibitor, full curve, poor fit]	
CC(C)(C)NC(=O)NC(=O)COC(=O)c1c(F)cccc1Cl		inactive: 0.613%
CCOc1ccc2nc(SCC(=O)c3ccccc3)sc2c1	inconclusive: 10 µM [inhibitor, partial curve]	
CCSc1nc(-c2ccco2)ccc1C#N	inconclusive: 17.8 µM [inhibitor, partial curve]	
CCOC(=O)C1CCN(C(c2cccc(F)c2)c2c(O)cc(C)n(CCOC)c2=O)CC1 (centres undefined)	inconclusive: 22.4 µM [inhibitor, partial curve]	
COc1ccccc1OCC(=O)Nc1sc2c(c1C(=O)NCC1CCCO1)CCC2 (centres undefined)	inconclusive: 3.55 µM [inhibitor, partial curve, poor fit]	
CN1/C(=C/C=N/NC(=O)c2ccc([N+](=O)[O-])cc2)C(C)(C)c2ccccc21	active: 6.31 µM	
COC(=O)C1=C(C)NC(C)=C(C(=O)OC(C)C)C1c1cccc2nonc12 (centres undefined)	inactive	
Cc1ccc(N=C2CSC(=O)N2)cc1		inactive: 10.1%
C/C(=N\Nc1ccc(Cl)c(C(=O)O)c1)c1ccc[nH]1	inconclusive: 28.2 µM [inhibitor, partial curve]	
Cc1nn(C)cc1C(=O)/C=C/c1ccc([N+](=O)[O-])cc1	inconclusive: 7.94 µM [inhibitor, partial curve]	
COc1ccc(N2C(S)=C(C#N)C(=O)NC23CCCCC3)cc1	inconclusive: 28.2 µM [inhibitor, single point]	
Nc1nc(-c2ccc(-c3ccccc3)cc2)cs1	inconclusive: 14.1 µM [inhibitor, partial curve]	
c1ccc(-c2nnc(CSc3nc4ccccc4[nH]3)o2)cc1		inactive: -0.232%
COC(=O)c1ccc(CN2CCN(Cc3ccc(C(=O)OC)o3)CC2)o1		inactive: -4.14%
CCOC(=O)c1c(N)sc(C(=O)N2CCCCC2)c1C		inactive: 2.44%
CC1=Nc2ccccc2/C1=C/c1sc(=S)n(-c2cccc(C(=O)O)c2)c1O	active: 3.55 µM	
O=C(Nc1ncc2c(n1)-c1ccccc1CC2)c1cccc(Cl)c1	inconclusive: 11.2 µM [inhibitor, partial curve, poor fit]	
C=C(C)CNC(=S)N/N=C\c1ccc2c(c1)OCO2		inactive: -8.66%
CCn1c(=S)ccc2ccc(OC)cc21	inconclusive: 28.2 µM [inhibitor, single point]	
